# Measured values from the supplement of paper PMC8728848.
# Some of the results follow.
# B1: Epa1-NP-mutant-Y228W (Candida glabrata), Q6VBJ0 (protein)
# chain: MILNPALFLNKCVCIYTTLILLLLTNGGYATSSNDISLASKDPTTFPLGCSPDITTPKKGLSMELYSYDFRKKGSYPCWDAAYLDPNYPRTGYKSHRLLAKVDGVTGNINFYYHATKGCTPQLGHLPASYNYPKPLTMTNFTMLLYGYFRPKVTGFHTFTISADDLLFVNFGAGNAFDCCRRDSSADHFGNYQAYAIWGSKTAKDELTVHLDAGVYYPIRLFYNNREWDGALSFTFKTESNENTVSDFSEYFFSLDDTEEGCPGLISYDSSCASVKTSKIIGIDYHTETPNENLVPITKTIYHLGIPCTGTTTTPLCGSGFYDPLANKCVTINTSSTSSVTKTTSHTTSKEVSFHSSISSQKTLIPKSIPSPYGPIKSQSIPTEMETSSEISSSEYAFSDVISTPSHSPYTKKHSSLNSSSYTSTVIHSLTSYSISQGIFSTSLSEQNITSKSSTDKFSTATSMSNNITQSSIIISQFSTNNENYTTTSMHTSSDKISTETLNNSISTTTSILFSNSSTILKNNTTIISSDKDTHYHPVNPTIVCSTNKTEIICASITQPSISNSNNHWSSSVLKFNSTTVRSTLPSSAGSNETSINVPFSSSTESNTSTSSTSTSNSKMVRSTLPSSAGSNETSISVPFSSSTESNTSTSSTSTSNSKMVRSTLPSSAGSNETSINVPFSSSTESNTSTSSTSTSNSKTVRSTPFSSAGIIMTSLSQRNNKSASSYASSNSKCYNTADSCRKVHSTPSYLLTSSYTSEGVDYDCSLVSTKLKINDTNCVNNKHTTKSCLKTSVTTTIPTLEIKTARKSSSNTIGLHSYPTSSPNKSISSAPIIGYISSFKTIKTASPSYQTSDLTTITTITSLNNPGSTAVENTHESNDKSRKTSSNDISSKHSVIKETKDAVESSNKSHQTNTLKCSSIIIASSSHNSYESLGGTTLTLTLSKVYSPQNNDTLPFLEISEVNPSRTVLPESSKMMQYLTSTEERNKTARNTIATNIVSISTFHFEGEGNAIRMGYTQLLLMLIGIIVMNIGT
# Columns and labels:
# Test in all cases: glycan array binding signal (z-score within array); higher = stronger binding
# Conditions in all cases: glycan notation: IUPAC condensed, linker removed; mutation: Y228W
# Gal(a1-3)Gal(b1-4)GlcNAc = target: Gal(a1-3)Gal(b1-4)GlcNAc
# Method in brief: (§1)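 The binding signal is a Z-score computed within each array. Data were drawn from 3228 arrays in the Consortium for Functional Glycomics database, restricted to those with a known protein sequence. Scores were averaged over arrays of the same protein sequence at different concentrations or buffers, and over linkers, and negative values can be taken as non-binding.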
# [1] = target: Gal(a1-3)Gal(b1-4)GlcNAc(b1-2)Man
# Method in brief: as §1
# [2] = target: Gal(a1-3)Gal(b1-4)GlcNAc(b1-2)Man(a1-3)[Gal(a1-3)Gal(b1-4)GlcNAc(b1-2)Man(a1-6)]Man(b1-4)GlcNAc(b1-4)GlcNAc
# Method in brief: as §1
# [3] = target: Gal(a1-3)Gal(b1-4)GlcNAc(b1-3)GalNAc
# Method in brief: as §1
# [4] = target: Gal(a1-3)Gal(b1-4)GlcNAc(b1-6)GalNAc
# Method in brief: as §1
# [5] = target: Gal(a1-3)Gal(b1-4)[Fuc(a1-3)]GlcNAc
# Method in brief: as §1
# [6] = target: Gal(a1-3)Gal(b1-4)[Fuc(a1-3)]GlcNAc(b1-2)Man(a1-3)[Gal(a1-3)Gal(b1-4)[Fuc(a1-3)]GlcNAc(b1-2)Man(a1-6)]Man(b1-4)GlcNAc(b1-4)GlcNAc
# Method in brief: as §1
# Gal(a1-3)GalNAc = target: Gal(a1-3)GalNAc
# Method in brief: as §1
# [7] = target: Gal(a1-3)[Gal(a1-4)]Gal(b1-4)GlcNAc
# Method in brief: as §1
# [8] = target: Gal(a1-4)Gal(b1-3)GlcNAc(b1-2)Man(a1-3)[Gal(a1-4)Gal(b1-3)GlcNAc(b1-2)Man(a1-6)]Man(b1-4)GlcNAc(b1-4)GlcNAc
# Method in brief: as §1
# Gal(a1-4)Gal(b1-4)Glc = target: Gal(a1-4)Gal(b1-4)Glc
# Method in brief: as §1
# Gal(a1-4)Gal(b1-4)GlcNAc = target: Gal(a1-4)Gal(b1-4)GlcNAc
# Method in brief: as §1
# [9] = target: Gal(a1-4)Gal(b1-4)GlcNAc(b1-2)Man(a1-3)[Gal(a1-4)Gal(b1-4)GlcNAc(b1-2)Man(a1-6)]Man(b1-4)GlcNAc(b1-4)GlcNAc
# Method in brief: as §1
# [10] = target: Gal(a1-4)Gal(b1-4)GlcNAc(b1-3)Gal(b1-4)Glc
# Method in brief: as §1
# Gal(a1-4)GlcNAc = target: Gal(a1-4)GlcNAc
# Method in brief: as §1
# Gal(a1-6)Glc = target: Gal(a1-6)Glc
# Method in brief: as §1
# Gal(b1-2)Gal = target: Gal(b1-2)Gal
# Method in brief: as §1
# Gal(b1-3)Gal = target: Gal(b1-3)Gal
# Method in brief: as §1
# Gal(b1-3)Gal(b1-4)GlcNAc = target: Gal(b1-3)Gal(b1-4)GlcNAc
# Method in brief: as §1
# Gal(b1-3)GalNAc = target: Gal(b1-3)GalNAc
# Method in brief: as §1
# [11] = target: Gal(b1-3)GalNAc(a1-3)[Fuc(a1-2)]Gal(b1-4)Glc
# Method in brief: as §1
# [12] = target: Gal(b1-3)GalNAc(a1-3)[Fuc(a1-2)]Gal(b1-4)GlcNAc
# Method in brief: as §1
# Gal(b1-3)GalNAc(b1-3)Gal = target: Gal(b1-3)GalNAc(b1-3)Gal
# Method in brief: as §1
# [13] = target: Gal(b1-3)GalNAc(b1-3)Gal(a1-4)Gal(b1-4)Glc
# Method in brief: as §1
# [14] = target: Gal(b1-3)GalNAc(b1-4)Gal(b1-4)Glc
# Method in brief: as §1
# [15] = target: Gal(b1-3)GalNAc(b1-4)[Neu5Ac(a2-3)]Gal(b1-4)Glc
# Method in brief: as §1
# Gal(b1-3)GlcNAc = target: Gal(b1-3)GlcNAc
# Method in brief: as §1
# [16] = target: Gal(b1-3)GlcNAc(a1-3)Gal(b1-4)GlcNAc
# Method in brief: as §1
# [17] = target: Gal(b1-3)GlcNAc(a1-6)Gal(b1-4)GlcNAc
# Method in brief: as §1
# Gal(b1-3)GlcNAc(b1-2)Man = target: Gal(b1-3)GlcNAc(b1-2)Man
# Method in brief: as §1
binder,measurement,setting,value
B1,glycan array binding signal (z-score),Gal(a1-3)Gal(b1-4)GlcNAc,-0.293
same,glycan array binding signal (z-score),[1],-0.088
same,glycan array binding signal (z-score),[2],-0.175
same,glycan array binding signal (z-score),[3],-0.339
same,glycan array binding signal (z-score),[4],-0.035
same,glycan array binding signal (z-score),[5],-0.217
same,glycan array binding signal (z-score),[6],0.22
same,glycan array binding signal (z-score),Gal(a1-3)GalNAc,-0.239
same,glycan array binding signal (z-score),[7],-0.336
same,glycan array binding signal (z-score),[8],-0.007
same,glycan array binding signal (z-score),Gal(a1-4)Gal(b1-4)Glc,-0.197
same,glycan array binding signal (z-score),Gal(a1-4)Gal(b1-4)GlcNAc,-0.087
same,glycan array binding signal (z-score),[9],0.133
same,glycan array binding signal (z-score),[10],-0.061
same,glycan array binding signal (z-score),Gal(a1-4)GlcNAc,-0.021
same,glycan array binding signal (z-score),Gal(a1-6)Glc,-0.349
same,glycan array binding signal (z-score),Gal(b1-2)Gal,-0.247
same,glycan array binding signal (z-score),Gal(b1-3)Gal,1.05
same,glycan array binding signal (z-score),Gal(b1-3)Gal(b1-4)GlcNAc,7.29
same,glycan array binding signal (z-score),Gal(b1-3)GalNAc,2.78
same,glycan array binding signal (z-score),[11],-0.009
same,glycan array binding signal (z-score),[12],0.177
same,glycan array binding signal (z-score),Gal(b1-3)GalNAc(b1-3)Gal,2.53
same,glycan array binding signal (z-score),[13],0.564
same,glycan array binding signal (z-score),[14],15
same,glycan array binding signal (z-score),[15],4.99
same,glycan array binding signal (z-score),Gal(b1-3)GlcNAc,-0.24
same,glycan array binding signal (z-score),[16],-0.338
same,glycan array binding signal (z-score),[17],-0.286
same,glycan array binding signal (z-score),Gal(b1-3)GlcNAc(b1-2)Man,-0.27
